Measured values from PubChem BioAssay AID686979 (National Center for Advancing Translational Sciences (NCATS), 2013).
Hit rate of the full screen: of about 420,000 compounds, about 50,000 (12%) were called active. Inconclusive results, whose numbers are uncertain, are shown with a selection of clear calls. Calls come from the whole dose curve; as a rule, active = well fitted inhibition curve with a large enough effect; inconclusive = small, poorly fitted or top-dose-only effect; inactive = flat fitted curve, though single readings scatter. No potency is given beside an inconclusive call; the fits are too rough.

Experiment: qHTS for Inhibitors of human tyrosyl-DNA phosphodiesterase 1 (TDP1): qHTS in cells in presence of CPT; note: nearly all actives have a fitted effect of over 55% in size
Conditions: chicken DT40 Tdp1-/-;hTDP1 cells + 20 nM CPT, ATP luminescence, 48 h; activity change, negative = growth inhibition: at 46.2 µM (top of the series)
Method in brief: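 Chicken DT40 Tdp1-/- cells complemented with human TDP1, 400 cells/well, exposed to compounds plus 20 nM camptothecin for at least 48 h at 37 C; viability read as ATP content by CellTiter-Glo luminescence.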
% is set by controls: 0 for no effect and ±100 for the full control effect; potency is the fitted concentration of half-maximal effect; tags give direction and shape of the fitted curve.

SMILES	Potency	activity change, negative = growth inhibition
COC(=O)N1C(=O)[C@](c2ccccc2)(C2CCCCC2)N1C(=O)OC	inconclusive [inhibitor, single point]	
COc1cccc2sc(N(CCN(C)C)C(=O)/C=C/c3cccs3)nc12	inconclusive [inhibitor, single point]	
NS(=O)(=O)c1ccc(N/N=C/c2cn(-c3ccccc3)nc2-c2cccs2)cc1	active: 5.17 µM	
O=C(c1ccc(F)cc1)N1CCC(C(=O)N2CCCc3ccccc32)CC1		inactive: -21.8%
c1ccc(-c2ccccc2OCCCCN2CCCCCC2)cc1	active: 18.4 µM	
CCn1cc(C(=O)NCC2CCCO2)c(=O)c2cc(S(=O)(=O)N3CCC(C)CC3)ccc21 (stereo not given)	inconclusive [inhibitor, single point]	
CCOC(=O)c1ccccc1NC(=O)c1ccc(Cl)c(S(=O)(=O)N2CCOCC2)c1	inconclusive [inhibitor, single point]	
CC1(CCc2ccccc2)NC(=O)N(CC(=O)Nc2ccccc2)C1=O (stereo not given)	inconclusive [inhibitor, single point]	
O=c1c(O)c(-c2ccccc2)oc2cc(O)ccc12	inconclusive [inhibitor, single point]	
Cn1c(CSCc2ccccc2Cl)nnc1SCC(=O)Nc1nccs1	inconclusive [inhibitor, single point]	
CCCN1C(=O)C(Cc2nc3ccccc3c(=O)n2-c2cccc(C)c2)c2ccccc21 (stereo not given)	inconclusive [inhibitor, single point]	
Cc1csc(NC(C)c2nc3cc(C(F)(F)F)ccc3n2CCOCCO)n1 (stereo not given)	inconclusive [inhibitor, single point]	
C[C@@H](NC(=O)[C@@H]1CCCN1C(=O)[C@@H]1CCCN1C(=O)c1ccc(Cl)cc1)c1ccccc1	inconclusive [inhibitor, single point]	
CC1CCN(S(=O)(=O)c2ccc3c(c2)N(CC(=O)N(C)Cc2ccco2)C(=O)CO3)CC1	inconclusive [inhibitor, single point]	
CCCn1c(-c2cccc(Br)c2)nc2ccccc21		inactive: -18.4%
O=C(Cc1c(F)cccc1Cl)NCCCn1ccnc1		inactive: -4.32%
CCC(C)(C)NC(=O)C(c1ccc(OC)cc1)N(C(=O)CCC(=O)Nc1cc(C)on1)c1ccc2c(c1)OCCO2 (stereo not given)		inconclusive: -36.3% [inhibitor]
Cc1cc2c(o1)CC(C)(C)CC2=O		inactive: 6.56%
Cn1nc(C(=O)NCCc2ccc(Cl)cc2)c2c1-c1ccccc1S(=O)(=O)C2	inconclusive [inhibitor, single point]	
O=C1CC(c2ccc3c(c2)OCCO3)Oc2ccccc21 (stereo not given)	inconclusive [inhibitor, single point]	
CCCNc1c(NC(=O)c2ccc3c(c2)OCO3)c(=O)oc2ccccc12	inconclusive [inhibitor, partial curve]	
Cc1ccc(-c2nc3ccc(Cl)cn3c2CC(C)(C)C)cc1	inconclusive [inhibitor, full curve, poor fit]	
CC(C)[C@H](NC(=O)c1ccccc1F)C(=O)Nc1ccc(F)c(F)c1		inactive: 4.58%
C=CCn1c(Oc2ccc(C(=O)OC)cc2)nc2c1c(=O)n(C)c(=O)n2C	inconclusive [inhibitor, partial curve]	

SMILES	Potency	activity change, negative = growth inhibition
NC(=O)c1nsc(C(=O)N(Cc2cccnc2)C(C(=O)NCc2ccc(F)cc2)c2ccc(O)cc2)c1N (stereo not given)		inactive: 2.42%
CC1CCN(c2ccc(NC(=O)c3ccc([N+](=O)[O-])o3)cc2)CC1	active: 4.61 µM	
CCCn1c(SCC(=O)N2CCCC2=O)nc2ccccc2c1=O		inactive: -12.6%
Cc1cccc(NS(=O)(=O)c2ccc(Oc3ccccc3)cc2)n1		inactive: -17.9%
Cc1ccn2c(-c3csc(Nc4ccc(C(=O)O)cc4)n3)c(C)nc2c1		inactive: -25.8%
COc1ccc(Nc2ccnc3ccccc23)cc1	active: 13 µM	
Cc1ccc(NC(=O)CSCC(=O)Nc2ccccc2N2CCCCC2)cc1	inconclusive [inhibitor, single point]	
CCc1ccc(CN(C)C(C)C(=O)NCc2ccccc2)cc1 (stereo not given)	inconclusive [inhibitor, partial curve]	
Cc1cc(C)cc(NC(=O)C2CCCN2S(=O)(=O)c2cccc3nsnc23)c1 (stereo not given)	inconclusive [inhibitor, single point]	
CCN(CC)CCN(C(=O)c1ccc2c(c1)OCCO2)c1nc2cc(C)cc(C)c2s1	active: 14.6 µM	
Cc1ccc(C2=CC(c3c(F)cccc3Cl)n3ncnc3N2)cc1C (stereo not given)	inconclusive [inhibitor, single point]	
CC(C(=O)O/N=C(\N)c1cccnc1)c1ccc([N+](=O)[O-])cc1 (stereo not given)		inactive: 5.43%
COCCSc1ccccc1C(=O)Nc1cccnc1		inactive: -13.8%
COc1cc(C(=O)N/N=C(\Cc2ncc[nH]2)c2ccccc2)cc(OC)c1OC	active: 2.06 µM	
CCCCC1=CC2=C(c3ccco3)C(=O)C(C)(OC(=O)c3ccc(OC)cc3)C(=O)C2=CN1CCCCO (stereo not given)	inconclusive [inhibitor, partial curve]	
COc1cc2cc(-c3ccc(OC)c(OC)c3C)nc(N)c2cc1OC	active: 5.17 µM	
COc1ccc(NC(=O)N2CCCC2C(=O)NCc2ccc(F)cc2)cc1 (stereo not given)		inactive: -1.61%
O=C(c1ccc2c3n(nc2c1)-c1ccc(Cl)cc1CO3)N1CCCCC1	inconclusive [inhibitor, single point]	
Cc1ccc(-c2nn3c(C)nnc3s2)cc1NC(=O)c1ccc(-c2ccc(Cl)cc2Cl)o1	active: 7.31 µM	
NS(=O)(=O)c1ccc(NC(=O)COc2ccc(C(=O)c3ccc(F)cc3)cc2)cc1	inconclusive [inhibitor, single point]	
Cc1cccc(N(CC(=O)NCc2ccc3c(c2)OCO3)C(=O)CCC(=O)Nc2ccccn2)c1	inconclusive [inhibitor, single point]	
COc1cccc(C2C(C(=O)Nc3ccccc3)=C(C)Nc3nc(-c4ccccc4)nn32)c1OC (stereo not given)	active: 16.4 µM	
CCOC(=O)c1ccc(CN(Cc2ccccc2C)S(=O)(=O)c2ccc(C(C)(C)C)cc2)cc1	inconclusive [inhibitor, single point]	
CC1(C)C2CCC1(C)C(NC(=O)COC(=O)c1ccc(S(C)(=O)=O)c([N+](=O)[O-])c1)C2 (stereo not given)	active: 5.01 µM	

SMILES	Potency	activity change, negative = growth inhibition
O=[N+]([O-])c1cc(Br)c(O)c(/C=N/Nc2nc3ccccc3s2)c1	active: 8.2 µM	
COc1ccc(N2C(=O)c3ccc(C(=O)Nc4ccccc4O)cc3C2=O)cc1		inactive: -14.6%
CC(C)Cc1nnc(NC(=O)CCc2c[nH]c3ccccc23)s1		inconclusive: -30.2% [inhibitor]
CC1CCN(c2nc3ccc(C(=O)N4CCN(Cc5ccc6c(c5)OCO6)CC4)cc3s2)CC1	inconclusive [inhibitor, single point]	
Cc1ccc2[nH]cc(C(=O)CN3CCN(c4ccccc4F)CC3)c2c1	inconclusive [inhibitor, single point]	
COc1ccccc1OCCCOc1cccc(/C=C2\SC(=O)NC2=O)c1	inconclusive [inhibitor, single point]	
O=C(Nc1nccs1)c1ccc(Cl)c(S(=O)(=O)N2CCCCC2)c1		inactive: 10.2%
Nc1nc(N)c(C=Nc2ccc(Br)cc2)c(Nc2ccc(Br)cc2)n1	active: 14.6 µM	
Cc1cccc(-c2cnc(C)nc2C2CCCN(C(=O)c3cccc(Cn4cccn4)c3)C2)c1 (stereo not given)	active: 3.26 µM	
COc1ccc(CNc2nc3c(c(=O)n(C)c(=O)n3C)n2Cc2ccccc2Cl)cc1	inconclusive [inhibitor, full curve, poor fit]	
COc1cccc(N2CCN(CC(=O)c3c[nH]c4ccc(OC)cc34)CC2C)c1 (stereo not given)	active: 20.6 µM	
COC(=O)c1c(CCl)noc1C(=O)NCC1CCCO1 (stereo not given)	inconclusive [inhibitor, single point]	
Cc1ccc(C)c(CN2CCC(CNC(=O)c3cc4ccc5cccnc5c4[nH]3)CC2)c1	inconclusive [inhibitor, single point]	
Cc1ccc(NC(=O)CSc2nc3c(c(=O)[nH]2)CCC3)c(C)c1		inactive: -11.7%
Cc1c(C(=O)NCC(C)(C)N2CCOCC2)cnn1-c1ncc2c(n1)-c1ccccc1CCC2		inactive: 8.08%
COc1ccc(C)cc1NC(=O)c1ccc2c(c1)CCN2S(=O)(=O)c1ccc(Cl)cc1		inactive: -25.6%
NC(=O)C1=C[C@H](c2csc3ccccc23)C[C@H](OCc2ccc(CO)cc2)O1	active: 14.6 µM	
CC(=O)N1CCc2cc(S(=O)(=O)NCCCOC(C)C)ccc21	inconclusive [inhibitor, partial curve, poor fit]	
COc1ccc(NCc2n[nH]nc2-c2ccccc2)cc1Cl	inconclusive [inhibitor, single point]	
Cc1cccc(-c2noc(-c3ccc(N4CCN(C)CC4)c([N+](=O)[O-])c3)n2)c1	inconclusive [inhibitor, single point]	
O=C(Cc1c(F)cccc1Cl)Nc1cc(S(=O)(=O)N2CCOCC2)ccc1N1CCOCC1	inconclusive [inhibitor, single point]	
COC(=O)Cn1c(O)c(N=NC(=O)CNC(=O)c2ccc3c(c2)OCCO3)c2ccccc21	inconclusive [inhibitor, partial curve]	
